Reference: PubChem BioAssay AID485294 (National Center for Advancing Translational Sciences (NCATS), 2010)
Screen size: about 370,000 compounds; about 150 (0.041%) were called active. Inconclusive means that the source gave no clear call. Such entries were picked first, then a sample of the others. Calls come from the whole dose curve; as a rule, active = well fitted inhibition curve with a large enough effect; inconclusive = small, poorly fitted or top-dose-only effect; inactive = flat fitted curve, though single readings scatter. Potencies of inconclusive entries are left out as doubtful fits.

target: Beta-lactamase (Escherichia coli (strain K12)) (UniProt P00811); assay: qHTS Inhibitors of AmpC Beta-Lactamase (assay with detergent); conditions: AmpC hydrolysis of nitrocefin, absorbance 480 nm, 0.01% Triton; activity change, negative = inhibition: at 114 µM (top of the series); note: nearly all actives have a fitted effect of over 25% in size;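 for activity change, negative = inhibition: 0% = no-compound wells and -100% = no-enzyme wells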
Sequence of UniProt P00811 (P00811 whole entry, looked up): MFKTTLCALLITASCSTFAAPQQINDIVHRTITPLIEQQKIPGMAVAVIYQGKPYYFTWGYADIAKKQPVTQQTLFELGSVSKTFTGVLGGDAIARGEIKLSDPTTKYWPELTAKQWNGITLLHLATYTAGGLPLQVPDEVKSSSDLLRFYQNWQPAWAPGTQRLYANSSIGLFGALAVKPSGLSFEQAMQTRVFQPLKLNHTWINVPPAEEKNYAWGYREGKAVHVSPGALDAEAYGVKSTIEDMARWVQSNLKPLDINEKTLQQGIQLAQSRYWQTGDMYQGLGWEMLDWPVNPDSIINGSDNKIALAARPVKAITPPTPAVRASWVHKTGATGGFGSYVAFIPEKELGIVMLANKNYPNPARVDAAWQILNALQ
Summary of the method: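 AmpC (5.3 nM in the dispensed reagent) in 20 mM phosphate pH 7.0 with 0.01% (detergent screen) or 0.0001% Triton X-100 was preincubated with compounds for 15 min at room temperature. Nitrocefin was then added from an 800 uM solution, and hydrolysis was followed at 480 nm.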
Potency is the fitted concentration of half-maximal effect; tags give direction and shape of the fitted curve.

SMILES | Potency | activity change, negative = inhibition
O=C(COC(=O)C1CC2C=CC1C2)Nc1ccc2c(c1)OC(F)(F)O2 (stereo not given) | inconclusive [inhibitor, full curve, poor fit] | –
O=S(=O)(Nc1ccc(Cl)cn1)c1ccc(F)cc1 | inconclusive [inhibitor, full curve, poor fit] | –
Cc1ccc(-c2nc3ccccc3c(=O)n2CCCn2ccnc2)cc1 | inconclusive [inhibitor, full curve, poor fit] | –
CC(C)Cc1cc(C(=O)Nc2c(F)cc(F)cc2Br)no1 | inconclusive [inhibitor, full curve, poor fit] | –
O=C(O)CCCNS(=O)(=O)c1cccs1 | inconclusive [inhibitor, full curve, poor fit] | –
COc1ccc(CNC(=O)Cc2c(C(=O)O)[nH]c3ccccc23)c(OC)c1 | inconclusive [inhibitor, partial curve, poor fit] | –
Cn1c(=O)n(C)c2cc([N+](=O)[O-])c(N3CCN(C(=O)c4cccc(F)c4)CC3)cc21 | – | inactive: 2.46%
CCN1CCn2c3c(c4cccc(C)c42)CCCC31 (stereo not given) | – | inactive: -1.14%
CCOC(=O)CN1N=C(c2ccc(C)cc2)CCC1=O | – | inactive: -1.72%
O=C(CNS(=O)(=O)c1ccccc1)OCC(=O)c1ccc(OC(=O)c2ccccc2)cc1 | – | inactive: 0.919%
CCn1c(N2CCN(C(=O)c3ccco3)CC2)nc2ccccc21 | – | inactive: 2.2%
COc1cccc(CSc2nnc(-c3ccco3)n2C)c1 | – | inactive: -11.5%
COC(=O)Cc1c(C)nc2nc(Cc3ccccc3)[nH]n2c1=O | inconclusive [inhibitor, full curve] | –
O=C(NC1CCCc2ccccc21)c1cccc(S(=O)(=O)N2CCN(c3ccccc3)CC2)c1 (stereo not given) | – | inactive: -3.89%
O=C(Nc1ccc(C(=O)N2CCCCC2)cc1)c1ccc([N+](=O)[O-])cc1 | inconclusive [inhibitor, full curve, poor fit] | –
CCc1nnc(NC(=O)C(=O)c2cc(C)n(-c3ccccc3)c2C)s1 | – | inactive: 18.1%
CCc1nc(SCC(=O)Nc2nc3c(s2)CCCC3)c2ccccc2n1 | inconclusive [inhibitor, full curve] | –
O=C(N1CCOCC1)N1CCOCC1 | inconclusive [inhibitor, full curve, poor fit] | –

SMILES | Potency | activity change, negative = inhibition
Fc1ccc(N2CCN(Cc3cnc(N4CCOCC4)s3)CC2)cc1 | inconclusive [inhibitor, full curve] | –
N#C/C=C1\n2c(nc3ccccc32)OC12CCCCC2 | inconclusive [inhibitor, single point] | –
CCC1(C)Cc2c(sc3c2c(=O)n(C)c2nnc(SCc4ccc5c(c4)OCO5)n32)CO1 (stereo not given) | inconclusive [inhibitor, full curve, poor fit] | –
O=C(CN1CCCN(Cc2ccccc2Cl)S1(=O)=O)NCc1ccccc1 | – | inactive: 11.9%
Cc1ccc(C(=O)N/C(=C\c2ccc(-c3ccc(Br)cc3)o2)C(=O)NCCCN(C)C)cc1 | inconclusive [inhibitor, partial curve] | –
CCOC(=O)Nc1ccc(C)cc1Br | – | inactive: 1.45%
Cc1ccc(C)c(NC(=O)c2ccc3c(=O)n4c(nc3c2)CCC4)c1 | inconclusive [inhibitor, full curve, poor fit] | –
COc1cccc(/C=N/NC(=O)C(=O)Nc2ccccc2OC(F)(F)C(F)F)c1 | inconclusive [inhibitor, full curve, poor fit] | –
COc1ccc(C(=O)c2oc3ccccc3c2NC(=O)COc2cccc(C)c2C)cc1 | – | inactive: 24.9%
Cc1ccc(Cn2nnnc2CN2CCC(O)(c3ccccc3F)CC2)cc1 | – | inactive: -9.21%
COc1cc(/C=N/n2nnnc2Nc2ccccc2)cc(OC)c1OC | inconclusive [inhibitor, full curve, poor fit] | –
CCOC(=O)c1[nH]c2ccc(Br)cc2c1NC(=O)CCN1CCCC(C)(C)C1 | inconclusive [inhibitor, partial curve, poor fit] | –
CC(CN(C)Cc1ccccc1)OC(=O)c1ccc2c(c1)OCCO2 (stereo not given) | – | inactive: -7.89%
CCc1ccccc1NC(=O)CCN1C(=O)c2ccccc2C1=O | – | inactive: 0.778%
O=C(Cn1c(-c2cccs2)cc2cc(Cl)ccc21)N1CCN(c2ccccc2F)CC1 | – | inactive: -8.06%
CC(=O)NC12CC3CC(C1)CC(C(=O)N(C)CC(=O)Nc1ccccc1Cl)(C3)C2 | inconclusive [inhibitor, partial curve, poor fit] | –
COc1cc(/C=C/CN2CCN(CCC(C)C)C(CCO)C2)ccc1O (stereo not given) | – | inactive: 4.42%
